Test results as given in paper PMC5441636.
Where a chain is given by its changes, count along the chain named. In names and notes the source's numbering stands. Results are given in words; binding and its absence hold for the method and conditions named. Some entries that bind do so weakly or less than the wild type. One block for each molecule: values may come before it.

Experiments:
[1] = biological target: human TAP1 NBD N676G/S677N (human) (UniProt Q03518); experiment: SEC; analytical S200 3.2/30 column, 10 μl of 10 mg/ml protein; nucleotide of these panels (Fig 4A, Fig 5A) not stated in text or legend; both purified
[2] = biological target: human TAP1 D-helix NBD variant with the D-loop D674A mutation (human) (UniProt Q03518); experiment: SEC; analytical S200 3.2/30 column, 10 μl of 10 mg/ml protein; protein preloaded with ATP, 1 mM ATP in the elution buffer (20 mM Tris-HCl pH 8.0, 50 mM NaCl, 5 mM MgCl2, 10% glycerol); monomer to dimer; both purified
[3] = biological target: human TAP1 NBD R515H/D517N (human-to-rat chimeric construct) (human) (UniProt Q03518); experiment: as above
[4] = biological target: human TAP1 NBD L595F/Q596R (human-to-rat chimeric construct) (human) (UniProt Q03518); experiment: as above
[5] = biological target: rat TAP1 NBD G653N/N654S (rat) (UniProt P36370); experiment: SEC; analytical S200 3.2/30 column, 10 μl of 10 mg/ml protein; nucleotide of these panels (Fig 4A, Fig 5A) not stated in text or legend; both purified
[6] = biological target: rat TAP1 D651A NBD (D-loop mutant) (rat) (UniProt P36370); experiment: SEC; analytical S200 3.2/30 column, 10 μl of 10 mg/ml protein; protein preloaded with ATP, 1 mM ATP in the elution buffer (20 mM Tris-HCl pH 8.0, 50 mM NaCl, 5 mM MgCl2, 10% glycerol); monomer to dimer; both purified

Molecule: human TAP1 NBD N676G/S677N (from UniProt Q03518 489-748) (domain or fragment)
binding [1]: no binding (tested: 10 mg/ml injected)

Molecule: human TAP1 NBD R515H/D517N (human-to-rat chimeric construct) (from UniProt Q03518 489-748) (domain or fragment)
binding [3]: no binding (tested: 10 mg/ml injected)

Molecule: human TAP1 NBD L595F/Q596R (human-to-rat chimeric construct) (from UniProt Q03518 489-748) (domain or fragment)
binding [4]: no binding (tested: 10 mg/ml injected)

B1: rat TAP1 NBD G653N/N654S (domain or fragment, UniProt P36370 466-725)
chain: PLSGSLAPLNMKGLVKFQDVSFAYPNHPNVQVLQGLTFTLYPGKVTALVGPNGSGKSTVAALLQNLYQPTGGKVLLDGEPLVQYDHHYLHTQVAAVGQEPLLFGRSFRENIAYGLTRTPTMEEITAVAMESGAHDFISGFPQGYDTEVGETGNQLSGGQRQAVALARALIRKPRLLILDDATSALDANSQLRVQRLLYESPEWASRTVLLITQQLSLAERAHHILFLKEGSVCEQGTHLQLMERGGCYRSMVEALAAPSD
binding [5]: binds

Next, values leading:

binding [2]: no binding (tested: 10 mg/ml injected)
Molecule: human TAP1 D-helix NBD variant with the D-loop D674A mutation (from UniProt Q03518 489-748) (domain or fragment)

binding [6]: no binding (tested: 10 mg/ml injected)
B2: rat TAP1 D651A NBD (D-loop mutant) (domain or fragment, UniProt P36370 466-725)
chain: B1 chain with D186A, N188G, S189N
